Measurements as given in PubChem BioAssay (NCI).
Where “and” joins values, the source holds several entries; their conditions need not be identical. Equal values may be shown once.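 Assay format: 96-well plates, 48-hour exposure. GI50: concentration for 50% inhibition of growth. TGI marks complete inhibition of growth.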 Numbered stars: 1 amine (or outer) side, 2 acyl side, 3 side chain; on linkers, the order of the positions; unused ones are H or OH. Square brackets hold non-standard residues; d marks the D form. Peptide text beside a SMILES is read from it. * marks the point of attachment. X27 = CC(=O)N(C)SCC(N[*:1])C(=O)[*:2]; Fmoc = O=C(OCC1c2ccccc2-c2ccccc21)*; For = O=C*

Tested on: NCI-H322M lung
Assay: NCI anticancer screen, dose series, 48 h

`C=CC[C@H]1[C@H](O[Si](C)(C)C(C)(C)C)C=CC(=O)[C@@H]1CC(=O)OCC` and `COc1ccc(/C=N\O[Si](C)(C)C(C)(C)C)cc1O[Si](C)(C)C(C)(C)C` are within 1.5-fold of each other in TGI: 28.1 µM for the first, 30.3 µM for the second.

`Cc1cccc(N=C2NC(=O)C(CC(=O)Nc3ccccc3Cl)S2)c1` (stereo unspecified) and `O=S(=O)(N/N=C/c1ccc(Cl)cc1Cl)c1ccccc1` cannot be ordered by TGI: > 100 µM for the first, > 100 µM for the second.

Going from `Cc1ccc(-n2cc(-c3ccc(Cl)cc3)c(C#N)c2N)cc1` to `CC(=O)n1c(-c2ccc(Cl)c(Cl)c2)cn(-c2ccc(Cl)cc2)c1=O`, the TGI rises from 36.8 µM to > 100 µM.

`COc1cc(/C=C\c2ccc(Cl)cc2)cc(OC)c1OC` and `CC1=NN(C(=O)c2nn(-c3ccc(Cl)cc3)cc2O)C(=O)C1` cannot be ordered by TGI: > 50.1 µM for the first, > 100 µM for the second.

First: Cc1cc(Cl)ccc1Nc1nc(C(F)(F)F)ccc1C(=O)Nc1cccc(C(F)(F)F)c1
Second: NS(=O)(=O)c1ccc(NC(=O)c2cccc3c(Nc4ccc(S(N)(=O)=O)cc4)c4ccccc4nc23)cc1
The TGI of the first is lower: 14 µM for the first, > 100 µM for the second.

`CCOC(=O)C(=O)Nc1cccc(C)c1C` and `CCOC(=O)C1Oc2ccc([N+](=O)[O-])cc2C1(C)O` (stereo unspecified) cannot be ordered by TGI: > 100 µM for the first, > 100 µM for the second.

Going from `C/C(=N\NC(=S)Nc1ccc(Cl)cc1)c1nc2ncccc2[nH]1` to `COc1ccc(/C(C#N)=C(/N)SCc2ccccc2Cl)cc1`, the TGI rises from 38.7 µM to 74 µM (1.9-fold).

Going from `O=C1c2ccccc2C(=O)c2c(O)c(NCCNCCO)cc(O)c21` to `O=C1C(NS(=O)(=O)c2ccccc2)=C(N(Cc2ccccc2)Cc2ccccc2)C(=O)c2ccccc21`, the TGI rises from 10.8 µM to > 100 µM.

`COC1(Cc2ccccc2)C(=O)c2ccccc2N1C(C)=O` (stereo unspecified) and `CN(C)N=Nc1nn(C(=O)Nc2ccc(Cc3ccccc3)cc2)c2ccccc12` cannot be ordered by TGI: > 100 µM for the first, > 100 µM for the second.

Compared with `O=C(Cn1c2ccccc2c2ccncc21)N/N=C\c1ccc2ccccc2c1`, `OC1(c2ccc3ccccc3c2)c2c(c3ccccc3c3ccccc23)C2=NCCN21` (stereo unspecified) is lower in TGI: > 100 µM for the first, 74.6 µM for the second.

`CC(=O)O[C@H]1CC[C@@]2(C)C(=C/C(=N\[N+](=O)[O-])[C@H]3C4CCC([C@H](C)CCCC(C)C)[C@@]4(C)CCC32)C1` (stereo partly specified) and `CC1=C(C(=O)NC(C)(C)C)CC(C(=O)NC(C)(C)C)C(C)N1` (stereo unspecified) cannot be ordered by TGI: > 100 µM for the first, > 100 µM for the second.

`O=C(O)c1cc(=O)c2cc(C(=O)c3cccs3)c(Cl)c(Cl)c2o1` and `O=c1oc2c(ccc3c(O)cccc32)c2c1CCCC2` cannot be ordered by TGI: > 100 µM for the first, > 100 µM for the second.

`CC(C)(CN)SCc1ccccc1` and `COc1nc(C)nc2c1ncn2Cc1ccccc1` cannot be ordered by TGI: > 100 µM for the first, > 100 µM for the second.

Compared with `CC(=O)N(C)SCC(NC(=O)C(Cc1ccccc1)NC(=O)OCC1c2ccccc2-c2ccccc21)C(=O)NC(Cc1ccccc1)C(=O)NC(Cc1cn(C=O)c2ccccc12)C(=O)NC(CCCCNC(=O)OCC1c2ccccc2-c2ccccc21)C(=O)NC(C(=O)NC(CSN(C)C(C)=O)C(=O)NC(C(N)=O)C(C)O)C(C)O` (stereo unspecified) (Fmoc-F[X27]FW(For)K(Fmoc)T[X27]T-NH2; configuration not given here), `Cc1ccc(S(=O)(=O)Nc2cc(Sc3ccccc3)c(O)c3ccccc23)cc1` is lower in TGI: > 100 µM for the first, 29.3 µM for the second.

`O=C1COCCN1c1ccc(NCc2cn(C(=O)c3ccc(Cl)cc3)c3ccccc23)cc1` and `Oc1ccc(Cn2c(-c3ccc(O)cc3)nc3ccccc32)cc1` cannot be ordered by TGI: > 100 µM for the first, > 100 µM for the second.

`Cc1cc(C#N)c(Nc2ccccc2[N+](=O)[O-])s1` and `C#CC(O)Cc1ccc(OC)c2occc12` (stereo unspecified) cannot be ordered by TGI: > 100 µM for the first, > 100 µM for the second.

`Cc1ncc(CO)c(C=NCCCCCCN=Cc2c(CO)cnc(C)c2O)c1O` and `CC(=O)O/N=C/c1cc2c(cc1Br)OCO2` cannot be ordered by TGI: > 100 µM for the first, > 349 µM for the second.

`O=C1NN=CN2C(=O)CCC12` (stereo unspecified) and `CN(CCO)/N=N/c1nc[nH]c1C(N)=O` cannot be ordered by TGI: > 100 µM for the first, > 100 µM for the second.

In the case of `BrC1=CN2C[n+]3cc(Br)c4ccccc4c3N=C2c2ccccc21`, the TGI is reported as 75.5 µM.

First: Cc1cc(Cl)ccc1Nc1nc(C(F)(F)F)ccc1C(=O)Nc1cccc(C(F)(F)F)c1
Second: CC(=O)n1c(-c2ccc(Cl)c(Cl)c2)cn(-c2ccc(Cl)cc2)c1=O
The GI50 of the first is 19-fold lower: 2.78 µM for the first, 52.6 µM for the second.

Compared with `CC1=NN(C(=O)c2nn(-c3ccc(Cl)cc3)cc2O)C(=O)C1`, `O=C1COCCN1c1ccc(NCc2cn(C(=O)c3ccc(Cl)cc3)c3ccccc23)cc1` is 7.4-fold higher in GI50: 1.11 µM for the first, 8.21 µM for the second.

Compared with `O=C(Cn1c2ccccc2c2ccncc21)N/N=C\c1ccc2ccccc2c1`, `CN(C)N=Nc1nn(C(=O)Nc2ccc(Cc3ccccc3)cc2)c2ccccc12` is higher in GI50: 19.4 µM for the first, > 100 µM for the second.

First: Cc1ccc(S(=O)(=O)Nc2cc(Sc3ccccc3)c(O)c3ccccc23)cc1
Second: CCN(CC)CCC(=O)O[C@H]1CC[C@H](CC(C)[C@H]2CC(=O)C(C)C=C(C)[C@H](OC(=O)CCN(CC)CC)C(OC)C(=O)[C@@H](C)CC(C)/C=C/C=C/C=C(C)C(OC)CC3CC[C@H](C)[C@](O)(O3)C(=O)C(=O)N3CCCCC3C(=O)O2)CC1OC (stereo partly specified)
The GI50 of the first is 5.5-fold higher: 15.5 µM for the first, 2.8 µM for the second.

`CCN(CC)CCC(=O)O[C@H]1CC[C@H](CC(C)[C@H]2CC(=O)C(C)C=C(C)[C@H](OC(=O)CCN(CC)CC)C(OC)C(=O)[C@@H](C)CC(C)/C=C/C=C/C=C(C)C(OC)CC3CC[C@H](C)[C@](O)(O3)C(=O)C(=O)N3CCCCC3C(=O)O2)CC1OC` (stereo partly specified) was tested, and the TGI was > 10 µM and 5.31 µM.
